In all, about 280,000 compounds went through this assay and about 100 (0.036%) were called active. Inconclusive means that the source gave no clear call. Such entries were picked first, then a sample of the others. Calls follow the shape of the dose curve; as a rule, active = well fitted inhibition curve with a large enough effect in the signal ratio, with a control signal flat (not every such curve was filed as active); inconclusive = small, poorly fitted or top-dose-only effect, or effect the other way, or a change in a side signal; inactive = no such curve, though single readings can be large or run the other way; the % refers to the signal ratio. Potencies beside an inconclusive call are fits to weak or partial responses and may not hold up. “Side channel” marks fits to a control or component signal instead of the main read-out.
Biological target: Muscleblind-like protein 1 (Homo sapiens) (UniProt Q9NR56)
Chain of UniProt Q9NR56 (Q9NR56 whole entry, looked up): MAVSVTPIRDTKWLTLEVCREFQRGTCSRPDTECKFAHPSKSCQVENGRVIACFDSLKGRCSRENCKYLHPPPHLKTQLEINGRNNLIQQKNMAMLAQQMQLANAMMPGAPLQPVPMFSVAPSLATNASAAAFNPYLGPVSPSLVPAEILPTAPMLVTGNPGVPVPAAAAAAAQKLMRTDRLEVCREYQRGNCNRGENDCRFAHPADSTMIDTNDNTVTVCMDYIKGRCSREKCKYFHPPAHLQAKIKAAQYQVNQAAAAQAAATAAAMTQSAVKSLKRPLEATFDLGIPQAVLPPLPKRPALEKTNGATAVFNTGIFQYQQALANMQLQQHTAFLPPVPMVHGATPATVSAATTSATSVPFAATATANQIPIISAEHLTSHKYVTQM
Test: qHTS Assay for Inhibitors of MBNL1-poly(CUG) RNA binding
Conditions: TR-FRET MBNL1-His/biotin-(CUG)12 binding, 665/545 ratio; series mostly up to 57.5 µM
Method in brief: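 Compounds (final 92 nM to 58 uM) are added to His-tagged MBNL1 and biotin-(CUG)12, then terbium anti-His antibody and streptavidin-XL665 (5 nM final). After 60 min at room temperature, the 665/545 nm ratio is read.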
Potency is read from the fitted curve at half-maximal effect; tags tell the direction and shape of the fitted curve or compound fluorescence and quenching.

Which Potency does the source give for COc1cccc(-c2c(C(=O)N/N=C/c3cccnc3)nnn2-c2nonc2N)c1 here?
Its Potency is inconclusive: 17.8 µM [quencher, side channel, partial curve].

For CCOC(=O)C(C(=O)N(C)C)c1ncc(C(F)(F)F)cc1Cl (stereo not given), which Potency is on record?
The Potency was “inactive”.

With Cc1cc2nc(-c3ccc(SCC(=O)N4CCN(C(=O)c5ccco5)CC4)nc3)[nH]c2cc1C as the compound, how does the Potency read?
The Potency was “inactive”.

Which Potency does the source give for CCOC(=O)N1CCN(C(=O)CNS(=O)(=O)c2cccs2)CC1 here?
Its Potency is “inactive”.

For O=C(Cn1nc([N+](=O)[O-])nc1Br)NC1CCCCC1, which Potency is on record?
Its Potency is inconclusive: 14.1 µM [quencher, side channel, partial curve].

With CCCCOc1ccc(C(=O)Oc2cc(C)[nH]c(=O)c2[N+](=O)[O-])cc1 as the compound, how does the Potency read?
Its Potency is “inactive”.

Which Potency does the source give for C/C(=N\NS(=O)(=O)c1ccc([N+](=O)[O-])cc1)c1ccc(NC(=O)c2ccco2)cc1 here?
The Potency was inconclusive: 12.6 µM [quencher, side channel, partial curve].

For COc1ccc(NC(=O)/C(Cl)=C(/Cl)S(=O)(=O)Cc2ccccc2)cn1, which Potency is on record?
Its Potency is “inactive”.

For CC(C)C(c1nnnn1Cc1ccc(F)cc1)N1CCN(Cc2ccc3c(c2)OCO3)CC1 (stereo not given), which Potency is on record?
The Potency was “inactive”.

How did the Potency turn out when CN(CCCS(=O)(=O)[O-])c1ccc(/C=C/c2ccc3ccccc3[n+]2C)cc1 was run?
The Potency was inconclusive: 15.8 µM [quencher, side channel, partial curve].

How did the Potency turn out when O=C(Nc1ccnn1C1CCN(CC2CC=CCC2)CC1)c1ccccc1Cl (stereo not given) was run?
The Potency was “inactive”.

With O=C(Nc1ccc([N+](=O)[O-])cc1)N1CCCCC1 as the compound, how does the Potency read?
Its Potency is inconclusive: 25.1 µM [quencher, side channel, single point].

COc1cc(/C=C/C(=O)OCC(=O)N2CCCCCC2)ccc1OCC#N was tested. Which Potency did it give?
The Potency was inconclusive: 20 µM [quencher, side channel, partial curve].

For O=C(OC1CCOC1=O)c1ccc(N2CCCC2)c([N+](=O)[O-])c1 (stereo not given), which Potency is on record?
Its Potency is inconclusive: 28.2 µM [quencher, side channel, partial curve].

For CC(NC(=O)/C(=C\c1cccc([N+](=O)[O-])c1)NC(=O)c1ccco1)C(=O)O (stereo not given), which Potency is on record?
Its Potency is inconclusive: 25.1 µM [quencher, side channel, single point].

With CCn1nc(NC(=O)c2cccnc2)c2cc3ccccc3nc21 as the compound, how does the Potency read?
The Potency was inconclusive: 25.1 µM [quencher, side channel, partial curve].

CS(=O)(=O)N1CCN(c2ccc([N+](=O)[O-])c3cccnc23)CC1 was tested. Which Potency did it give?
Its Potency is inconclusive: 11.2 µM [quencher, side channel, partial curve].

With CN1CCN(C(=O)c2ccc(-c3ccccc3)cc2)CC1 as the compound, how does the Potency read?
The Potency was “inactive”.

CCOc1ccccc1-n1c(=S)sc2c(=O)n(-c3ccc(C)cc3)c(=S)[nH]c21 was tested. Which Potency did it give?
Its Potency is inconclusive: 35.5 µM [quencher, side channel, single point].

Cc1nnsc1C(=O)NC1CCCc2c1cnn2-c1ccccc1F (stereo not given) was tested. Which Potency did it give?
The Potency was “inactive”.

Which Potency does the source give for S=C(NCc1ccccc1)Nc1cccc2ccccc12 here?
The Potency was inconclusive: 31.6 µM [quencher, side channel, single point].

With Cc1ccc(-c2cc(C(=O)NCc3ccco3)c3ccccc3n2)o1 as the compound, how does the Potency read?
The Potency was inconclusive: 35.5 µM [quencher, side channel, single point].

For Cc1cc(C(=O)COC(=O)c2cc(O)c3ccccc3c2O)c(C)n1CC1CCCO1 (stereo not given), which Potency is on record?
The Potency was inconclusive: 28.2 µM [quencher, side channel, single point].

CC1CC(c2ccccc2)=Nc2ccccc2N1 (stereo not given) was tested. Which Potency did it give?
Its Potency is inconclusive: 15.8 µM [quencher, single point].

With NC(=O)[C@@H]1CCCNc2c(I)cc([N+](=O)[O-])cc2C(=O)N[C@@H](CCCN=C(N)N)C(=O)N[C@@H](CCCN=C(N)N)C(=O)N1 as the compound, how does the Potency read?
Its Potency is inconclusive: 15.8 µM [quencher, side channel, partial curve].

With O=C(COC(=O)C1CCCCC1)Nc1cc([N+](=O)[O-])ccc1F as the compound, how does the Potency read?
Its Potency is inconclusive: 15.8 µM [quencher, side channel, partial curve].

With COc1ccc(N2CCN(CCNS(=O)(=O)c3cccc4nsnc34)CC2)cc1 as the compound, how does the Potency read?
The Potency was inconclusive: 11.2 µM [quencher, side channel, partial curve].

How did the Potency turn out when CCN(CC)c1ccc(C=Nc2ccc(C#N)cc2)c(O)c1 was run?
The Potency was inconclusive: 22.4 µM [quencher, side channel, partial curve].

For CC(OC(=O)/C=C/c1cccs1)C(=O)Nc1ccc(S(N)(=O)=O)cc1 (stereo not given), which Potency is on record?
The Potency was inconclusive: 28.2 µM [quencher, side channel, single point].

For C/C=C/C(=O)Nc1cccc(C2=NOC3(C2)C[C@@H](C(N)=O)N(C(=O)c2cc([N+](=O)[O-])cc([N+](=O)[O-])c2)C3)c1 (stereo not given in full), which Potency is on record?
The Potency was inconclusive: 14.1 µM [quencher, side channel, partial curve].

How did the Potency turn out when COc1ccc(-c2cc(C(F)(F)F)nc(SCCC(=O)NCc3ccccc3)n2)cc1 was run?
The Potency was “inactive”.

With CCOC(=O)c1cc(C)[nH]c(=O)c1C#N as the compound, how does the Potency read?
Its Potency is inconclusive: 20 µM [quencher, side channel, partial curve].

With N#Cc1c(-c2ccco2)c2c([nH]c1=S)CCCC2 as the compound, how does the Potency read?
The Potency was inconclusive: 8.91 µM [quencher, side channel, single point].

For O=[N+]([O-])c1nn(-c2ccccc2)n(O)c1=NCc1ccc2c(c1)OCO2, which Potency is on record?
The Potency was inconclusive: 12.6 µM [quencher, side channel, partial curve].

How did the Potency turn out when COc1ccc(NC(=O)CN(C)C(=O)CN2C(=O)c3ccc([N+](=O)[O-])cc3C2=O)cc1 was run?
Its Potency is inconclusive: 15.8 µM [quencher, side channel, partial curve].

How did the Potency turn out when O=C(O)c1cccc(S(=O)(=O)Nc2ccc(O)c(Sc3nc4ccccc4s3)c2)c1 was run?
Its Potency is inconclusive: 100 µM [inhibitor, single point].

CC(=O)Nc1c([N+](=O)[O-])cc(C)c(Cl)c1[N+](=O)[O-] was tested. Which Potency did it give?
Its Potency is inconclusive: 25.1 µM [quencher, side channel, single point].

How did the Potency turn out when O=C(NCc1ccco1)c1cc2sccc2n1Cc1ccc(F)cc1 was run?
The Potency was inconclusive: 5.01 µM [quencher, side channel, partial curve].

Which Potency does the source give for Nc1cc2nc3ccccc3oc-2cc1=O here?
The Potency was inconclusive: 12.6 µM [quencher, side channel, partial curve].

For CCOc1ccc2c(c1)c(N=NC(=N)N)c(O)n2C, which Potency is on record?
Its Potency is inconclusive: 15.8 µM [quencher, side channel, partial curve].

How did the Potency turn out when CCN(CC(=O)Nc1ccccc1Br)Cc1nc2ccccc2c(=O)[nH]1 was run?
The Potency was “inactive”.

Cc1ccc(/C=C2\Oc3cc(OC(=O)N4CCOCC4)ccc3C2=O)cc1 was tested. Which Potency did it give?
Its Potency is inconclusive: 0.0316 µM [fluorescent, side channel, full curve].

With CC(=O)N1N=C(c2ccc(C)o2)CC1c1ccc(F)cc1 (stereo not given) as the compound, how does the Potency read?
The Potency was inconclusive: 28.2 µM [quencher, side channel, partial curve].

With O/N=C/c1ccc2ccccc2c1 as the compound, how does the Potency read?
Its Potency is inconclusive: 15.8 µM [quencher, side channel, partial curve].

How did the Potency turn out when CN(c1ncc(C(F)(F)F)cc1Cl)N1C(=O)c2cccc([N+](=O)[O-])c2C1=O was run?
The Potency was inconclusive: 17.8 µM [quencher, side channel, partial curve].

For COc1ccc(-c2nc(C#N)c(NCc3ccccc3Cl)o2)cc1, which Potency is on record?
Its Potency is “inactive”.

Which Potency does the source give for COc1ccc(-c2cc(=O)oc3cc(OC(C)C(=O)Nc4ccc(CN5CCOCC5)cc4)ccc23)cc1 (stereo not given) here?
The Potency was inconclusive: 28.2 µM [quencher, side channel, single point].

For O=C(O)c1cc2c(ccc3ccccc32)oc1=O, which Potency is on record?
Its Potency is inconclusive: 31.6 µM [quencher, side channel, single point].

With CC1CN(c2ncc(/C=N/NC(=O)c3ccccc3O)s2)CC(C)O1 (stereo not given) as the compound, how does the Potency read?
The Potency was inconclusive: 25.1 µM [quencher, side channel, partial curve].

CSc1ccc(/C=C/C(=O)OCC(=O)N(C)CCC#N)cc1 was tested. Which Potency did it give?
Its Potency is inconclusive: 22.4 µM [quencher, side channel, partial curve].

How did the Potency turn out when CCSc1nc2ccccc2n1C(=O)/C=C/c1ccc(OC)c(OC)c1 was run?
The Potency was “inactive”.

For C=CCn1c(SCC(=O)N2CC(=O)Nc3ccccc32)nc2scc(-c3ccccc3)c2c1=O, which Potency is on record?
The Potency was “inactive”.

How did the Potency turn out when O=C(CSc1ccc(-c2cccc([N+](=O)[O-])c2)nn1)NCc1ccccc1 was run?
The Potency was inconclusive: 17.8 µM [quencher, partial curve].

O=[N+]([O-])c1cccc(C(O)C23CN4CN(CN(C4)C2)C3)c1 (stereo not given) was tested. Which Potency did it give?
The Potency was inconclusive: 3.16 µM [quencher, side channel, full curve].

How did the Potency turn out when O=[N+]([O-])c1ccccc1NCc1c(O)ccc2ccccc12 was run?
Its Potency is inconclusive: 39.8 µM [quencher, side channel, single point].

For Cc1c(NC(=S)N2CCN(c3ccc(F)cc3)CC2)c(=O)n(-c2ccccc2)n1C, which Potency is on record?
Its Potency is “inactive”.

Which Potency does the source give for CCOc1ccccc1N(C)C(=O)C1CCN(S(=O)(=O)c2cccc3nonc23)CC1 here?
The Potency was inconclusive: 17.8 µM [quencher, side channel, partial curve].

How did the Potency turn out when COc1ccccc1-c1ccc2nnc(SC)n2n1 was run?
The Potency was inconclusive: 28.2 µM [quencher, side channel, partial curve].

With COc1cc(C(=O)Nc2cccc(NC(=O)c3ccccc3)c2)cc(OC)c1OC as the compound, how does the Potency read?
The Potency was “inactive”.

With O=C(CCS(=O)(=O)c1ccccc1)Nc1ccc2c(c1)C(=O)NC2=O as the compound, how does the Potency read?
The Potency was inconclusive: 31.6 µM [quencher, side channel, single point].

Reference: PubChem BioAssay AID2675 (National Center for Advancing Translational Sciences (NCATS), 2010)
